# In article PMC4336329 (PLoS ONE, 2015):
# Among all 310,000 compounds or so, about 14,000 (4.5%) showed an effect of 50% or more. Effects have a minus sign here. The list shows a part of the results.
# Target: human ether-à-go-go-related gene (hERG) potassium channel (human, UniProt Q12809)
# Experiment: primary screen, population patch clamp on CHO cells stably expressing hERG
# 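Also: peak tail current of the secondary pulse compared with the same well before compound.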
# Chain of human ether-à-go-go-related gene (hERG) potassium channel (Q12809 whole entry, looked up): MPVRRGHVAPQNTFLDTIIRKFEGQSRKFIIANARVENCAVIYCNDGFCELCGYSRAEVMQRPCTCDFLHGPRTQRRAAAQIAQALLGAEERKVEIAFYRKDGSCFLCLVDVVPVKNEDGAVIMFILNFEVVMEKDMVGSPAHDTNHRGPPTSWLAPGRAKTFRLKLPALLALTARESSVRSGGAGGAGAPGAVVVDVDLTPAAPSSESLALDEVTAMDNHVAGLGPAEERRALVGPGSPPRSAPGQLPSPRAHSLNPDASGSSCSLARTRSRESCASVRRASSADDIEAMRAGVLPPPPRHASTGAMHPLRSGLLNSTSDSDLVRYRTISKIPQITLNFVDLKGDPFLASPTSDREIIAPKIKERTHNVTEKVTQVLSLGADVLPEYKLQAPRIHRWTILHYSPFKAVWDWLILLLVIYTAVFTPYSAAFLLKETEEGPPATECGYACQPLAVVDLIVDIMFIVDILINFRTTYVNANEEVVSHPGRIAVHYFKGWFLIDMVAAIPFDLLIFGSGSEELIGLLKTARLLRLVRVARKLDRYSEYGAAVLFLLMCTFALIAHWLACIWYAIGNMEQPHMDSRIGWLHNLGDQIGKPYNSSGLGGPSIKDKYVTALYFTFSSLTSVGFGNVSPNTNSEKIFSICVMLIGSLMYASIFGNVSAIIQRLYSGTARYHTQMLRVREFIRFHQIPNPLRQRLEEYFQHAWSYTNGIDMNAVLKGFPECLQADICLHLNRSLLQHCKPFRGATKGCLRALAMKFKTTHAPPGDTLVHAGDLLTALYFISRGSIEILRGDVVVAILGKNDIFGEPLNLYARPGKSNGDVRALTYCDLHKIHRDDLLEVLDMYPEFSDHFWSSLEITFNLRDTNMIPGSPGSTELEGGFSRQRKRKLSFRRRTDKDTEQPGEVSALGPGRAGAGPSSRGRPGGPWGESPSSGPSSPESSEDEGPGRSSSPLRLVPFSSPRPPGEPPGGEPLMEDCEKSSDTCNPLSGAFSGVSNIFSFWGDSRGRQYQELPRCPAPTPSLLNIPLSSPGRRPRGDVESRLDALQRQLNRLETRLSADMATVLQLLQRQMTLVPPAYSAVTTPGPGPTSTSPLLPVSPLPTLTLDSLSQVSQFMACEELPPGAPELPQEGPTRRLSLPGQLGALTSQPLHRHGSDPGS
row,SMILES,"hERG current change (%, negative = inhibition) at 10uM"
1,COC(=O)C1=CN(C2CCCCC2)C=C(C(=O)OC)C1c1ccc2c(c1)OCO2,0.434%
2,Cc1ccc(CNC(=O)CNC(=S)N(Cc2ccccc2)Cc2cccnc2)cc1,-19.8%
3,O=C1CN(C(=O)COc2ccccc2)c2ccccc2N1,9.67%
4,COC(=O)c1ccc(N2C(=O)c3ccc(OC)c(OC)c3C2=O)cc1,-8.57%
5,COc1cccc(C(=O)Nc2ccc3c(c2)C(=O)N(CCC(=O)O)C3=O)c1,5.74%
6,O=[N+]([O-])c1ccc(N2CCN(c3ccc(O)cc3)CC2)cn1,-52.8%
7,COC(=O)c1ccc(-n2ccnc2)cc1,22.3%
8,COC(=O)c1cc(S(=O)(=O)NCc2ccccc2OC)cn1C,4.66%
9,CC(Sc1nc2ccccc2[nH]1)C(=O)O (stereo not shown),5.82%
10,O=[N+]([O-])c1ccc(S(=O)(=O)Nc2nnc(C3CCCCC3)s2)cc1,0.946%
11,CC(C)n1c(COc2ccccc2)nc2ccccc21,9.63%
12,Cc1ccc2nc(SCC(=O)Nc3cc(C)on3)c(C)cc2c1,10.7%
13,O=C(Cn1cnc2ccccc2c1=O)NCC(=O)N1CCOCC1,4.05%
14,CCCCCn1c(=NC(C)=O)c(C#N)cc2c(=O)n3ccccc3nc21,-43%
15,COc1ccc(S(=O)(=O)N(C)CC(=O)NCc2ccco2)cc1OC,15.8%
16,CCCn1c(C(C)Nc2nc(-c3ccc(C)cc3)cs2)nc2cc(Cl)c(N3CCCCC3)cc21 (stereo not shown),21.8%
17,CCC(C)(C)C1CCC2(CC1)NC(=S)N(c1ccccc1)N2 (stereo not shown),19.4%
18,COC(=O)c1ccc2c(=O)n(CCN3CCOCC3)c(SCC(=O)Nc3ccccc3Cl)nc2c1,-33.4%
19,COc1cccc(-c2nc(CS(=O)(=O)CC(=O)NCCCN3CC(C)CC(C)C3)c(C)o2)c1 (stereo not shown),-35.2%
20,COc1ccc(C(=O)NCCN2CCN(C(=O)c3ccc(OC)cc3)CC2)cc1,-75.2%
21,CC(C)(C)NNC(=S)Nc1cccc(F)c1,10.8%
22,CCOc1ccccc1NC(=O)Cn1cnc2c(nnn2-c2cccc(OC)c2)c1=O,4.03%

row,SMILES,"hERG current change (%, negative = inhibition) at 10uM"
1,CCNC(=O)CC1C(=O)N(c2ccc(C)cc2)C(=O)N1CCC(C)C (stereo not shown),-2.19%
2,CCN(CC)N=Nc1ccc(S(=O)(=O)[N-]c2nc(C)cc(C)n2)cc1.[K+],-17.2%
3,Cc1cc(=O)oc2cc(OC(C)C(=O)NCCCN3CCCC3=O)c(Cl)cc12 (stereo not shown),2.72%
4,CCn1nc(NC(=O)c2ccccn2)c2cc3cccc(C)c3nc21,-2.45%
5,Cc1cc(OC(C)C(=O)NCCN2CCOCC2)c2c(C)c(C)c(=O)oc2c1 (stereo not shown),9.89%
6,O=C(CCNS(=O)(=O)c1ccc(Cl)cc1)N1CCCC1,17.1%
7,COc1ccc(C(=O)NCCS(=O)(=O)N(C)Cc2ccccc2)cc1,0.987%
8,Cc1cccc(CC2CC(=O)N(c3ncccn3)C2=O)c1 (stereo not shown),16%
9,Cc1sc2nc(CN3CCC(C)CC3)nc(Cl)c2c1C,-17.8%
10,Cc1cccc(CC(=O)N2CCN=C2SCc2ccc([N+](=O)[O-])cc2)c1,-11.8%
11,CNC(=O)CN1C(=O)c2cccc3cccc1c23,10.3%
12,Cc1nn(-c2cc(C(F)(F)F)ccc2Cl)c2nc(C(Cl)(Cl)Cl)[nH]c(=O)c12,4.05%
13,COc1ccc(NC(=O)CN2C(=O)CSc3ncccc32)cc1,-2.9%
14,O=C(NCCCn1ccnc1)c1cc(-c2cccc(O)c2)on1,-11.9%
15,CN1C(=O)/C(=N/OC(=O)c2ccccc2)c2ccccc21,-9.6%
16,CC(C)n1c(SC2C(=O)CC(C)(C)CC2=O)nc2c1c(=O)n(C)c(=O)n2C,21.5%
17,CCCCN(CC)Cc1ccc(CNC(=S)Nc2ccc(C)cc2Cl)o1,-32.1%
18,CCCC1(c2ccccc2)NC(=O)N(CC(=O)Nc2cc(S(=O)(=O)N3CCOCC3)ccc2Cl)C1=O (stereo not shown),-22.6%
19,Cc1cc(NC(=O)CSc2nc3c(c(=O)n2-c2ccccc2)SC(C)C3)no1 (stereo not shown),-17.5%
20,COc1ccc(CN2CCN(Cc3ccccc3C(F)(F)F)CC2)c(OC)c1.O=C(O)C(=O)O,-74.2%
21,CC1=CC(c2ccccc2)n2nc(N)nc2N1 (stereo not shown),1.8%
22,CCOC(=O)c1nc2ccccc2c(=O)[nH]1,17.6%

row,SMILES,"hERG current change (%, negative = inhibition) at 10uM"
1,COc1cccc(C(c2c(N)[nH]c(=S)[nH]c2=O)c2c(N)[nH]c(=S)[nH]c2=O)c1,22.6%
2,CCCc1cc(C(=O)Nc2cccc(C(C)=O)c2)no1,4.05%
3,CN(CC(=O)N1CCN(c2ccccn2)CC1)S(=O)(=O)c1ccc(Br)cc1,-54.8%
4,CC(=O)c1ccc(S(=O)(=O)Nc2ccc(C(=O)NCC(c3ccccc3)N(C)C)cc2)cc1 (stereo not shown),8.62%
5,O=C(Nc1ccccc1N1CCCC1)C1CCN(C(=O)c2ccc(Cl)cc2)CC1,-59.8%
6,O=C(/C=C/c1ccc(Cl)cc1)N(Cc1ccccc1)C1CCS(=O)(=O)C1 (stereo not shown),-75%
7,COCCN(C(=O)COC(=O)CCc1ccc(OC)cc1)c1c(N)n(Cc2ccccc2)c(=O)[nH]c1=O,27.6%
8,CCCCNC(=O)/C(C#N)=C/c1ccc(F)cc1F,17.1%
9,O=C(CCCC(=O)OCC(=O)c1cccs1)Nc1ccc(F)cc1,-30.9%
10,CC(C)CC1C(C#N)=C(N)OC2=C1C(=O)CC(c1ccccc1)C2 (stereo not shown),-9.18%
11,O=C(Nc1ccc(C(=O)N2CCCc3ccccc32)cc1)c1cccs1,12.4%
12,O=C(CN1CCN(C(=O)C2CCCO2)CC1)Nc1ccc(Br)cc1 (stereo not shown),-70%
13,CC1CCC(NC(=O)C2CCC(CNS(=O)(=O)c3cccc4nsnc34)CC2)CC1 (stereo not shown),1.51%
14,COC(=O)c1cc2n(n1)CCN(Cc1ccc(OC)cc1)C2=O,-0.73%
15,CCOC(=O)c1ccc(NC(=O)CCc2nc(-c3ccc(Cl)cc3)no2)cc1,8.36%
16,CCCC(O)(CCN1CCOCC1)c1ccc(Br)cc1.Cl (stereo not shown),-20.7%
17,O=c1cc(CO)oc(C(Nc2ccccn2)c2cccc(F)c2)c1O (stereo not shown),5.36%
18,CN(C)c1ccc(C2C3C(=O)N(c4ccc(C(=O)O)cc4)C(=O)C3ON2c2ccccc2)cc1 (stereo not shown),7.23%
19,CCOC(=O)CSc1nc(N)c2c3c(sc2n1)CCCC3,-0.576%
20,CC(OC(=O)Cc1c[nH]c2ccccc12)C(=O)NC1CCCCC1C (stereo not shown),-5.09%
21,Cc1occc1-c1nnc(SCC(=O)c2ccc3c(c2)OCCO3)n1CC1CCCO1 (stereo not shown),-12.5%
22,CCC(=NCCC1=CCCCC1)c1c(O)[nH]c(=O)[nH]c1=O,-0.506%

row,SMILES,"hERG current change (%, negative = inhibition) at 10uM"
1,Cc1cc(Cl)ccc1OCc1nc(-c2ccncc2)no1,-5.1%
2,O=C(O)C(C/C(=N/O)c1ccc(Br)cc1)P(=O)(c1ccccc1)c1ccccc1 (stereo not shown),12%
3,O=C(O)CC(NC(=O)C1c2ccccc2Oc2ccccc21)c1ccc(Cl)cc1 (stereo not shown),9.04%
4,COc1ccc(S(=O)(=O)N2CCN(CCOc3ccc(Br)cc3)CC2)cc1OC,-12.8%
5,O=C(CN1C(=O)C2CC=CCC2C1=O)NCc1cccs1 (stereo not shown),5.19%
6,COc1ccc(CCNCC(O)COc2cccc(C(C)=O)c2)cc1OC.O=C(O)C(=O)O (stereo not shown),-0.028%
7,O=C(CN1CCN(Cc2ccccc2F)C1=O)NCC1CCCO1 (stereo not shown),2.9%
8,N#Cc1c(-c2ccccc2)cc(-c2ccccc2)nc1SCC(=O)O,34.7%
9,COc1ccc(NCc2nnc(SCC(=O)N3CCCc4ccccc43)o2)cc1,-7.78%
10,C/C(=N/Nc1ccc(Cl)cc1)c1cnnc(-c2ccccc2)n1,29.9%
11,Cc1ccc(-c2nc(CS(=O)CC(=O)NCc3ccc(Cl)cc3)c(C)o2)cc1 (stereo not shown),0.973%
12,Cc1noc(C)c1C(=O)Nc1ccc(F)cc1,33.3%
13,COC(=O)c1cc(NC(=O)Nc2ccccc2)ccc1Cl,8.32%
14,CCOC(=O)c1ccccc1NC(=O)c1cc2ccccc2o1,20.9%
15,O=C(NCc1cccnc1)c1ccccc1NC(=O)c1c(F)cccc1F,4.58%
16,O=C(N/N=C/c1c[nH]c2ccccc12)c1ccccc1O,6.71%
17,Br.O=C(Cn1c(NCCO)nc2ccccc21)c1ccc(F)cc1,6.28%
18,Cc1noc(C)c1COC(=O)c1cccnc1Cl,3.21%
19,CN(CC(=O)NCCc1ccc(Cl)cc1)S(=O)(=O)c1ccc2c(c1)c(=O)n(C)c(=O)n2C,-23.1%
20,CCOc1ccccc1C(=O)NCC(=O)NNC(=O)CN(C)S(=O)(=O)c1ccc(Cl)cc1,-2.59%
21,CCCOc1ccc(C(=O)CCC(=O)Nc2ccc(N3CCN(C)CC3)cc2)cc1,-48.2%
22,CC(=O)c1cnc(N2CCCCC2)nc1C,-11.6%
